The record followed here is PubChem BioAssay AID1347073 (National Center for Advancing Translational Sciences (NCATS), 2019).

Each structure is given as a SMILES string. In all, about 45,000 compounds went through this assay and about 200 (0.44%) were called active. Not shown: some 7% with an inconclusive outcome. Calls follow the shape of the dose curve; as a rule, active = well fitted activation curve with a large enough effect; inconclusive = small, poorly fitted or top-dose-only effect; inactive = no such curve, though single readings can be large or run the other way. Some of the results follow.

A short description of this assay: qHTS of TDP-43 Inhibitors: NCGC Sytravon Library Screen. Also: 0% is about no effect; nearly all actives have a fitted effect of over 55% in size. As to conditions: yeast TDP-43 toxicity rescue, BacTiter-Glo growth, 24 h; series mostly up to 46.1 µM; growth rescue (activation): at the top concentration. The method in brief: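 TDP-43-expressing yeast, pregrown in raffinose, seeded at OD600 0.02 in galactose medium with compound for 24 hr at 30 deg C. Growth read by BacTiter-Glo luminescence, so rescue of toxicity appears as activation.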
With `CCOC(=O)CSc1nc(C)cc2c1C(=O)OC2`, the “growth rescue (activation)” value is inactive: 10.9%.

`CCOC(=O)C1(C)CCCN(C(=O)c2ccccc2C(F)(F)F)C1` (stereo unspecified): the “growth rescue (activation)” value is inactive: 5.74%.

Turning to `COc1ccccc1C1(CCN=Cc2ccc(N(C)C)cc2)CCOC(C)(C)C1` (stereo unspecified), the “growth rescue (activation)” value is inactive: -21.7%.

In the case of `CC1CCN(S(=O)(=O)c2ccc3c(c2)CCN3C(=O)Nc2cccc(Br)c2)CC1`, the “growth rescue (activation)” value is inactive: -9.71%.

On to `CCC(=O)c1ccc(OCC(=O)Nc2nc(C)cs2)cc1`, for which the “growth rescue (activation)” value was inactive: 42.3%.

As for `COc1ccc(C(=S)N2CCOCC2)cc1OS(=O)(=O)c1ccccc1[N+](=O)[O-]`, the “growth rescue (activation)” value was inactive: 2.41%.

For the molecule `CCOc1ccccc1Nc1ccnc2cc(Cl)ccc12`, the “growth rescue (activation)” value is inactive: -13.2%.

Turning to `CC(=O)Nc1cccc(C(=O)N/N=C/c2cccc(C)n2)c1`, the “growth rescue (activation)” value is inactive: -3.3%.

For `COc1ccccc1CNc1ccc(Br)cn1`, the “growth rescue (activation)” value is inactive: -0.94%.

Regarding `Cc1ccc(C)c(NC(=O)COC(=O)c2ccc[n+]([O-])c2)c1`, the “growth rescue (activation)” value was inactive: 13.2%.

As to `O=C(NCc1cnc2ccccn12)C1CCC(=O)N(Cc2ccccc2F)C1` (stereo unspecified), the “growth rescue (activation)” value is inactive: 15.8%.

Consider `COC(=O)c1c(C)[nH]c(C(=O)C(C)OC(=O)C2=NNC(=O)CC2)c1C` (stereo unspecified), for which the “growth rescue (activation)” value is inactive: 25.3%.

Turning to `CC(=O)Oc1ccc(C(=O)Nc2ccc(S(=O)(=O)NCC3CCCO3)cc2)cc1` (stereo unspecified), the “growth rescue (activation)” value is inactive: 18.1%.

Turning to `CN1C(=O)c2cccc3c(S(=O)(=O)Nc4ccccc4F)ccc1c23`, the “growth rescue (activation)” value is inactive: 9.64%.

With `Clc1ccc(Nc2c(-c3cccs3)nc3ccc(Cl)cn23)cc1`, the “growth rescue (activation)” value is inactive: -4.91%.

In the case of `COC(=O)Cc1cc(=O)[nH]c(/N=C(\N)Nc2ccc(C)cc2C)n1`, the “growth rescue (activation)” value was inactive: 6.61%.

In the case of `Cc1ccc(NC(=S)N2CCOCC2)cc1`, the “growth rescue (activation)” value was inactive: 11.7%.

Regarding `COc1ccc(C(=O)N/N=C/c2ccc(OC(=O)c3cccc4ccccc34)c([N+](=O)[O-])c2)cc1`, the “growth rescue (activation)” value is inactive: 15.9%.

As to `CC(=O)NC1C(=O)N=C(SCC(=O)Nc2ccc(C(F)(F)F)cc2Cl)NC1=O` (stereo unspecified), the “growth rescue (activation)” value was inactive: -11.4%.

For the molecule `CC(=O)Nc1ccccc1OCc1cnc(Cl)s1`, the “growth rescue (activation)” value was inactive: 4.43%.

Take `COc1ccc(OC)c(C(O)c2ncc(-c3ccccc3Cl)[nH]2)c1` (stereo unspecified): the “growth rescue (activation)” value was inactive: 5.59%.

In the case of `O=C1C(Cl)=C(NS(=O)(=O)c2ccc([N+](=O)[O-])cc2)C(=O)c2ccccc21`, the “growth rescue (activation)” value is inactive: 1.59%.

In the case of `C=CCNC(=O)CSc1nnc(-c2ccccc2Br)n1-c1cccc(C(F)(F)F)c1`, the “growth rescue (activation)” value is inactive: 10.2%.

Turning to `Cc1ccc(C(=O)NCC(=O)OCC(=O)N2CCCc3ccccc32)cc1`, the “growth rescue (activation)” value was inactive: 14.1%.

On to `COc1ccc(C(=O)c2c(C)oc3ccc(O)cc23)c(OC)c1`, for which the “growth rescue (activation)” value is inactive: 9.31%.

As to `CCCn1nnnc1NCc1cccc(Cl)c1`, the “growth rescue (activation)” value was inactive: 11.8%.

Consider `COc1ccc(C(NC(=O)C2CCN(CCOc3ccccc3)CC2)c2ccccn2)cc1` (stereo unspecified), for which the “growth rescue (activation)” value is inactive: 1.98%.

In the case of `OCc1nc2ccc(Cl)cc2[nH]1`, the “growth rescue (activation)” value was inactive: 26.2%.

Take `CN(C)CCNc1ccc(-c2nn(C)c(=O)c3ccccc23)cc1[N+](=O)[O-]`: the “growth rescue (activation)” value is inactive: -3.85%.

In the case of `COc1ccccc1C(NC(=O)C1CCN(CCOc2ccc(Cl)cc2Cl)CC1)c1ccccn1` (stereo unspecified), the “growth rescue (activation)” value was inactive: -2.34%.

Regarding `COc1ccccc1NC(=O)N(Cc1ccco1)Cc1cc2cccc(C)c2[nH]c1=O`, the “growth rescue (activation)” value is inactive: -32.8%.

In the case of `CN(C(=O)CC1C(=O)NCCN1Cc1ccc(F)cc1)C1CCOCC1` (stereo unspecified), the “growth rescue (activation)” value was inactive: -8.59%.

Turning to `O=C(COc1ccccc1C(=O)O)Nc1ccc(SC(F)F)cc1`, the “growth rescue (activation)” value was inactive: -10.4%.

Regarding `O=C(NCCN1CCNC1=O)C1CCC(=O)N(CCc2ccccc2)C1` (stereo unspecified), the “growth rescue (activation)” value was inactive: 11.3%.

With `C=CCOc1ccc(CNCCO)cc1OCC`, the “growth rescue (activation)” value was inactive: -15.1%.

With `CC1CCC(NS(=O)(=O)c2ccc(Cl)s2)CC1` (stereo unspecified), the “growth rescue (activation)” value is inactive: 19.8%.

`C[C@H](NC(=O)c1ccccc1Cl)C(=O)NCCc1ccc(S(N)(=O)=O)cc1`: the “growth rescue (activation)” value was inactive: -3.68%.

In the case of `O=C(COc1ccc(Br)cc1)Nc1ccccc1C(=O)N1CCOCC1`, the “growth rescue (activation)” value was inactive: 4.42%.

Regarding `O=C(NCCCn1ccnc1)C1CCCN(S(=O)(=O)c2ccc(F)cc2)C1` (stereo unspecified), the “growth rescue (activation)” value is inactive: 6.57%.

On to `O=S(=O)(c1ccc2ccccc2c1)N1CCOCC1`, for which the “growth rescue (activation)” value was inactive: 5.47%.

`CC(C)(C)Cc1nnc(NC(=O)CN2C(=O)c3ccccc3C2=O)s1`: the “growth rescue (activation)” value is inactive: 5.13%.

Regarding `Cc1cccc(CC(=O)Nc2ccon2)c1`, the “growth rescue (activation)” value was inactive: 9.64%.

As for `Cc1cc(F)ccc1C(O)c1ncc(-c2ccc(Cl)cc2)[nH]1` (stereo unspecified), the “growth rescue (activation)” value is inactive: 11.2%.

Consider `COc1ccc(NC(=S)NC2CC3CCC2C3)c(OC)c1` (stereo unspecified), for which the “growth rescue (activation)” value is inactive: -6.79%.

With `CC(=O)c1c(C)[nH]c(C(=O)COC(=O)c2cccnc2Cl)c1C`, the “growth rescue (activation)” value was inactive: 22.2%.

Regarding `Cc1ccc(-c2csc(NC(=O)N3CCOCC3)n2)cc1`, the “growth rescue (activation)” value is inactive: 25.2%.

Turning to `CC(Sc1nnc(-c2ccccc2)c(-c2ccccc2)n1)C(=O)N1CCc2ccccc21` (stereo unspecified), the “growth rescue (activation)” value was inactive: 12.1%.

Turning to `Cn1c(SCC(N)=O)nnc1-c1cnccn1`, the “growth rescue (activation)” value was inactive: -1.96%.

`Cn1c(S(=O)(=O)O)nc2ccccc21`: the “growth rescue (activation)” value is inactive: -1.82%.

In the case of `CCN(CC)C(C(=O)Nc1ccc2c(c1)OCO2)c1ccccc1` (stereo unspecified), the “growth rescue (activation)” value was inactive: -6.22%.

Consider `O=C(O)C1CCN(C(=O)c2cccc3ccccc23)CC1`, for which the “growth rescue (activation)” value is inactive: 5.59%.

In the case of `Cc1cc(Cl)ccc1OCC(=O)NN1C(=O)C2C3C=CC(C3)C2C1=O` (stereo unspecified), the “growth rescue (activation)” value is inactive: 2.51%.

In the case of `CCOC(=O)c1ccc(NC(=O)c2c(NC(=O)CCC(=O)O)sc3c2CCCCC3)cc1`, the “growth rescue (activation)” value is inactive: -3.66%.

For the molecule `CCNCCC(CCC(C)C)c1ccc2c(c1)OCO2` (stereo unspecified), the “growth rescue (activation)” value is inactive: 1.33%.

For the molecule `COc1ncnc2c1oc1nc(CC(C)C)c3c(c12)CCCC3`, the “growth rescue (activation)” value is inactive: 6.89%.

For `CS(=O)(=O)N(CC(=O)NCCSCc1ccccc1)c1ccccc1`, the “growth rescue (activation)” value was inactive: -0.627%.
